Laboratory results published in PubChem BioAssay AID686978 (National Center for Advancing Translational Sciences (NCATS), 2013).
Screen size: about 420,000 compounds; about 64,000 (15%) were called active. Inconclusive means that the source gave no clear call. Such entries were picked first, then a sample of the others. The call rests on the fitted dose curve; in most records, active means well fitted inhibition curve with a large enough effect; inconclusive means small, poorly fitted or top-dose-only effect; inactive means flat fitted curve, though single readings scatter. Potencies of inconclusive entries are left out as doubtful fits.
On the % scale 0 is the no-effect control and ±100 the full control effect; potency means the concentration at half of the fitted maximal effect; tags describe the fitted curve by direction and shape.

Assay: qHTS for Inhibitors of human tyrosyl-DNA phosphodiesterase 1 (TDP1): qHTS in cells in absence of CPT; further: nearly all actives have a fitted effect of over 55% in size
Conditions: DT40 Tdp1-/- hTDP1 cells, no CPT, ATP luminescence, 48 h; activity change, negative = growth inhibition: at 46.2 µM (top of the series)
Procedure, shortened: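 A cellular qHTS used chicken DT40 cells lacking endogenous Tdp1 but carrying stably transfected human TDP1. Compounds were applied without camptothecin, and cell growth kinetics were judged by ATP-dependent luminescence after ≥48 hr.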
For COc1ccc(Cc2nc3ccc(S(N)(=O)=O)cc3[nH]2)cc1OC, the Potency was inconclusive [inhibitor, single point].
With COCCCNC(=O)CNC(=S)N(Cc1cc(OC)c(OC)c(OC)c1)C1CCCC1 the Potency was “inactive”.
For COc1cccc(C(=O)Nc2nnc(-c3ccc(Cl)cc3)o2)c1, the Potency was active: 10.3 µM.
In the case of Cc1ccc([N+](=O)[O-])cc1S(=O)(=O)N1CCn2cccc2C1c1ccccc1 (stereo not drawn), the Potency is reported as inconclusive [inhibitor, single point].
For COc1ccc(Br)cc1/C=N/NS(=O)(=O)c1ccccc1, the Potency was active: 7.31 µM.
With CCOC(=O)c1cc2c(c(-c3cccc(C#Cc4ccc(OC)c(OC)c4)c3)n1)[C@@H](CCO)N(S(=O)C(C)(C)C)C2 (stereo partly drawn) the Potency was inconclusive [inhibitor, single point].
With Cc1cccc(N(Cc2ccccc2)C(=O)CCl)c1 the Potency was inconclusive [inhibitor, full curve, poor fit].
With Cc1csc(NCC(=O)c2c(C)[nH]c3ccccc23)n1 the Potency was “inactive”.
In the case of CC1Cc2cc(/C=C3/SC(=S)NC3=O)ccc2O1 (stereo not drawn), the Potency is reported as active: 18.4 µM.
For O=C(Nc1ccc(NC(=O)c2ccc(Cl)cc2Cl)cc1)c1ccc2c(c1)OCO2, the Potency was “inactive”.
With CN(C)c1ccc(C=NNc2ccccn2)c(Cl)c1 the Potency was inconclusive [inhibitor, single point].
For CC(=O)c1ccccc1NC(=O)COC(=O)/C=C/c1ccc(C)o1, the Potency was inconclusive [inhibitor, single point].
For O=C(CSc1ncn[nH]1)N1N=C2/C(=C/c3ccco3)CCCC2C1c1ccco1 (stereo not drawn), the Potency was inconclusive [inhibitor, single point].
In the case of O=C(Nc1ccccc1)c1nccn1Cc1ccc(F)cc1, the Potency is reported as “inactive”.
For O=C(COC(=O)c1cc(=O)c2ccccc2o1)NC1CCCC1, the Potency was “inactive”.
For CCCCCCCCN1C(=O)[C@H](CC(=O)NCC23CC4CC(CC(C4)C2)C3)C[C@@]2(C(=O)OC)CCCCC=C12, the Potency was inconclusive [inhibitor, single point].
In the case of CCC(=O)N(Cc1ccc(S(N)(=O)=O)cc1)C1CC(=O)N(c2ccc(OC)cc2)C1=O (stereo not drawn), the Potency is reported as “inactive”.
With C=C(C)Cn1c(Sc2nc3ccccc3[nH]2)nc2c1c(=O)[nH]c(=O)n2C the Potency was “inactive”.
In the case of COC(=O)c1ccc(CSc2ccccc2C)o1, the activity change, negative = growth inhibition is reported as inconclusive: -33.5% [inhibitor].
With O=C(CCn1c2c(c3ccccc31)CCCC2)NNC(=O)c1cccc([N+](=O)[O-])c1 the Potency was inconclusive [inhibitor, single point].
In the case of COc1cccc(-c2nc(N3CCCCC3C)c3ccccc3n2)c1O (stereo not drawn), the Potency is reported as inconclusive [inhibitor, partial curve, poor fit].
For COc1nccc(-c2ccc(F)cc2)c1C#N, the Potency was “inactive”.
In the case of CC(C)Cc1nnc(NC(=O)C2CCN(C(=O)c3ccc(F)cc3)CC2)s1, the Potency is reported as “inactive”.
For CC1=C(C(=O)N2CCCCCC2)CC(CC(=O)NCCCN(C)C)C(=O)N1Cc1ccc(C(C)(C)C)cc1 (stereo not drawn), the Potency was inconclusive [inhibitor, single point].
In the case of CC1(C)CC(=O)C=C(OC(=O)c2ccc(Cl)cc2)C1, the Potency is reported as “inactive”.
In the case of Cc1ccc(C2(C(F)(F)F)NC(=O)N3N=C4CCCCCN4C3=C2C#N)cc1 (stereo not drawn), the Potency is reported as “inactive”.
With COc1ccc(O)c(C(=O)CC(=O)c2ccncc2)c1 the Potency was inconclusive [inhibitor, single point].
With CC(C)(C)NC(=O)C1CC(=O)N(CCc2ccc(F)cc2)C1 (stereo not drawn) the Potency was “inactive”.
With CC1CCCCN1C(=O)C1CCN(S(=O)(=O)c2ccc(-n3cnnn3)cc2)CC1 (stereo not drawn) the Potency was inconclusive [inhibitor, partial curve].
In the case of O=C1[C@H]2[C@@H](c3ccc(F)cc3)N3C(=O)N(c4ccc(Br)cc4)C(=O)[C@@]3(Cc3ccc(Cl)cc3)[C@H]2C(=O)N1C1CCCCC1, the Potency is reported as inconclusive [inhibitor, single point].
With COc1ccc(NC(=O)CCc2nnc3n(Cc4ccccc4Cl)c(=O)c4ccccc4n23)cc1 the Potency was active: 3.26 µM.
For COc1ccc(Cl)cc1/C=C/c1ccc2cccc(O)c2n1, the Potency was inconclusive [inhibitor, single point].
With COc1ccc(C(CNC(=O)COc2ccc(-c3ccccc3)cc2)N2CCOCC2)cc1 (stereo not drawn) the Potency was inconclusive [inhibitor, single point].
In the case of Cc1ccc(S(=O)(=O)CCSC(=N)N)cc1, the Potency is reported as active: 16.4 µM.
For O=C(NCc1cccs1)C1CCN(S(=O)(=O)c2cccc3nsnc23)CC1, the Potency was “inactive”.
In the case of CCOc1ccccc1CNC(=O)Cn1cc2c(n1)-c1c(oc(C(=O)N3CCCC3)c1C)CC2, the Potency is reported as active: 13 µM.
With c1ccc(C[C@H]2CN=C(Nc3ccccc3)N2CCC2CCCC2)cc1 the Potency was active: 14.6 µM.
For COc1ccccc1Nc1nnc(SCc2cc(=O)n3ccsc3n2)s1, the Potency was active: 23.1 µM.
With COc1ccc(/C=N/NC(=O)c2cnccn2)c(OC)c1OC the Potency was “inactive”.
With Cc1cccnc1NC(=O)NC(=O)c1ccc(C(C)(C)C)s1 the Potency was active: 16.4 µM.
With CSCC(=O)N1CCCC(N2CCN(c3cccc(C(F)(F)F)c3)CC2)C1 (stereo not drawn) the Potency was inconclusive [inhibitor, single point].
With CCC(C)c1ccc(NC(=S)NCc2ccccc2OC)cc1 (stereo not drawn) the Potency was active: 23.1 µM.
In the case of O=C(CSc1c2c(nc3cc(Cl)ccc13)CCCC2)NCCN1CCOCC1, the Potency is reported as inconclusive [inhibitor, single point].
With CCNc1cc(N2CCN(C3CCCCC3)CC2)c2noc3c2c1C(=O)c1ccccc1-3 the Potency was inconclusive [inhibitor, single point].
In the case of Cc1cc(NC(=S)Nc2ccc(C)c(Cl)c2)n[nH]1, the Potency is reported as inconclusive [inhibitor, single point].
In the case of O=C(CSc1nnc(-c2c[nH]c3ccccc23)o1)N1c2ccccc2CCc2ccccc21, the Potency is reported as active: 16.4 µM.
For COc1ccc(C(=O)NCCS(=O)(=O)N(C)Cc2ccccc2)cc1, the Potency was inconclusive [inhibitor, full curve, poor fit].
For COc1cccc(N2CCN(C(=O)c3cn(Cc4ccccc4)nc3-c3cccnc3)CC2)c1, the Potency was active: 2.06 µM.
For Cc1ccc(Oc2ccc(S(=O)(=O)N3CCOCC3)cc2C(N)=O)cc1C, the Potency was inconclusive [inhibitor, partial curve, poor fit].
For COc1ccc(CN(Cc2cccnc2)S(=O)(=O)c2ccc(-n3cnnn3)c(OC)c2)cc1, the Potency was inconclusive [inhibitor, single point].
In the case of CCOc1ccc2nc(NCCNC(=O)Nc3ccccc3)c(C#N)cc2c1, the Potency is reported as inconclusive [inhibitor, partial curve, poor fit].
In the case of COc1ccc(Br)cc1CNC(=O)CCSCc1ccc(C)cc1, the Potency is reported as inconclusive [inhibitor, single point].
With NC(=O)N/N=C/c1ccc(-c2cccc(C(F)(F)F)c2)o1 the Potency was “inactive”.
With CC(C)(C)NC(=O)C(c1ccc(F)cc1)N(Cc1ccco1)C(=O)CCC(=O)Nc1nccs1 (stereo not drawn) the Potency was “inactive”.
For O=C(Cn1cc(S(=O)(=O)c2ccccc2)c(=O)c2cc3c(cc21)OCO3)Nc1ccc(Cl)cc1, the Potency was inconclusive [inhibitor, single point].
In the case of COc1cc(=O)n2c(c1C(=O)NC(C)c1ccco1)CCN(C(=O)c1ccc3c(c1)OCCO3)CC2 (stereo not drawn), the Potency is reported as “inactive”.
In the case of CC1(C(=O)NCc2ccc(C(F)(F)F)cc2)CCN1Cc1c(F)cccc1F (stereo not drawn), the activity change, negative = growth inhibition is reported as inconclusive: -31.3% [inhibitor].
In the case of COc1cc2c(cc1OC)CN(C(=O)/C=C/c1cccc([N+](=O)[O-])c1)CC2, the Potency is reported as inconclusive [inhibitor, single point].
With COc1cccc(NC(=O)CN2C(=O)COc3ccc(C)cc32)c1 the activity change, negative = growth inhibition was inconclusive: -31.5% [inhibitor].
In the case of Cc1ccc(S(=O)(=O)N2CCN(Cc3nc4ccc(C)cc4o3)CC2)cc1, the Potency is reported as inconclusive [inhibitor, full curve].
With O=C(Nc1ccnn1C1CCN(C2CCOCC2)CC1)c1cccc(F)c1 the Potency was “inactive”.
For COc1ccc(CCNC(=O)c2cc(COc3c(C)cccc3C)on2)c(OC)c1, the Potency was “inactive”.
For CCOC(=O)CSc1nc2ccccc2c(=O)n1-c1cccc(C)c1, the Potency was inconclusive [inhibitor, single point].
For O=C(COc1ncnc2ccc(Br)cc12)NC1CCCC1, the Potency was “inactive”.
With COc1ccc([C@H]2CC(=O)C=C(c3ccc(C)c([N+](=O)[O-])c3)C2)cc1 the Potency was inconclusive [inhibitor, single point].
For Cc1cc(NC(=O)Cn2cnc3sccc3c2=O)no1, the Potency was “inactive”.
In the case of C[C@H](CO)N1C[C@H](C)[C@@H](CN(C)Cc2cccc(C(=O)O)c2)Oc2cc(Br)ccc2S1(=O)=O, the Potency is reported as “inactive”.
For CCOc1ccc(NC(=O)COC(=O)C23CC4CC(CC(C4)C2)C3)c([N+](=O)[O-])c1, the Potency was inconclusive [inhibitor, single point].
For O=C(CN1Cc2ccccc2OC(c2ccccc2)C1)NCc1cccnc1 (stereo not drawn), the Potency was inconclusive [inhibitor, single point].
For Cc1cc(-c2ccccc2)nc(Oc2ccc(C(C)(C)C)cc2)c1S(C)(=O)=O, the Potency was active: 20.6 µM.
For CCN(CC)S(=O)(=O)c1ccc(S(=O)(=O)N2CCCC2)cc1, the Potency was “inactive”.
For Cc1ccc(S(=O)(=O)N2CCN(C(=O)c3ccc(OCc4c(C)noc4C)cc3)CC2)cc1, the Potency was inconclusive [inhibitor, partial curve].
For CN(C(=O)c1ccco1)c1nc(-c2ccc(Cl)cc2)cs1, the Potency was inconclusive [inhibitor, partial curve].
